Laboratory results: PubChem BioAssay AID651820 (National Center for Advancing Translational Sciences (NCATS), 2012)
Among all 340,000 compounds or so, about 12,000 (3.5%) were called active. Inconclusive results, whose numbers are uncertain, are shown with a selection of clear calls. Calls come from the whole dose curve; as a rule, active = well fitted inhibition curve with a large enough effect; inconclusive = small, poorly fitted or top-dose-only effect, or another doubt; inactive = no such curve, though single readings can be large or run the other way. Potencies of inconclusive entries are doubtful fits and often do not repeat.

Assay: qHTS Assay for Inhibitors of Hepatitis C Virus (HCV)
Conditions: Huh7.5.1 HCVcc-Cre (HCVcc is cell-culture hepatitis C virus) infection, luciferase reporter, 44 h; activity change, negative = inhibition: at 41.8 µM (top of the series) unless noted
Summary of the method: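 Whole-lifecycle infectious HCVcc-Cre system; cells 1,000/well, compound then virus (~0.5 moi) added 4 h after plating, 44 h culture. Luciferase read 15 sec following 15 min substrate incubation, room temp.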
% is set by controls: 0 for no effect and ±100 for the full control effect; potency is the fitted concentration of half-maximal effect; tags give direction and shape of the fitted curve.

Row | Structure (SMILES) | Potency | activity change, negative = inhibition
1 | COc1cccc(NC(=O)CN(C)C(=O)c2cccc(S(=O)(=O)N3CCN(c4ccc(F)cc4)CC3)c2)c1 | inconclusive: 25.1 µM [inhibitor, single point] | –
2 | O=C(Oc1ccccc1)c1ccc(NC(=O)c2ccco2)cc1 | inactive | –
3 | COc1ccc(C)c2sc(N(CCN(C)C)C(=O)c3cccc(N4C(=O)CCC4=O)c3)nc12 | inactive | –
4 | Cc1ccc(CS(=O)(=O)c2ncc(Cl)c(C(=O)Nc3nnc(C(C)C)s3)n2)cc1 | inconclusive: 22.4 µM [inhibitor, single point] | –
5 | CN(CC(=O)NC1CCN(Cc2ccccc2)CC1)S(=O)(=O)c1ccc(Cl)cc1 | inconclusive: 22.4 µM [inhibitor, single point] | –
6 | O=C(CCc1nc(-c2ccccc2)no1)Nc1cccc(C(=O)NC2CC2)c1 | inconclusive: 22.4 µM [inhibitor, single point] | –
7 | COc1ccc(N(C)C(=O)CCC(=O)Nc2ccc3nc(N4CCOCC4)cc(C)c3c2)c(OC)c1 | inconclusive: 0.501 µM [inhibitor, partial curve, poor fit] | –
8 | Cc1nn(C)cc1S(=O)(=O)N1CCN(c2ccccc2)CC1 | – | inconclusive: -30.9% [inhibitor] [at 8.37 µM]
9 | O=C(CSc1n[nH]c(-c2cc(Cl)ccc2Cl)n1)NCCN1C(=O)CSC1=O | inactive | –
10 | CC(=O)NC1=C(C#N)C(c2ccccc2)c2c(ccc3ccccc23)O1 (centres undefined) | inconclusive: 14.1 µM [inhibitor, single point] | –
11 | CCOc1ccc(NC(=S)NC(=O)/C=C/c2ccco2)cc1 | inconclusive: 31.6 µM [inhibitor, single point] | –
12 | N#CCSc1nc2ccc(N3CCCCC3)cc2c(=O)n1Cc1ccccc1 | inconclusive: 22.4 µM [inhibitor, single point] | –
13 | CN(C)c1nc(N)nc(CSc2ncc(Cl)cc2Cl)n1 | inconclusive: 7.08 µM [inhibitor, partial curve] | –
14 | O=C(Nc1cccc2cccnc12)c1cccc(Cl)c1 | inconclusive: 22.4 µM [inhibitor, single point] | –
15 | COc1ccccc1N1CCN(C(=O)Cn2nnc(-c3cccs3)n2)CC1 | inactive | –
16 | CC(NCC(=O)Nc1ccccc1C(=O)NC1CC1)c1cccc(Cl)c1 (centres undefined) | inactive | –
17 | Cc1ccc2c(Cl)cc(Cl)c(OCC(=O)Nc3cccc(S(=O)(=O)N(C)C)c3)c2n1 | inconclusive: 3.55 µM [inhibitor, full curve] | –
18 | COc1cc(C(=S)N2CCOCC2)cc(OC)c1OC(=O)c1ccccc1[N+](=O)[O-] | active: 15.8 µM | –
19 | COc1ccc(CCNC(=S)NC(=O)c2ccccc2)cc1C | inconclusive: 11.2 µM [inhibitor, single point] | –
20 | Cc1ccc(-c2csc(NC(=O)c3ccco3)n2)cc1C | inconclusive: 31.6 µM [inhibitor, single point] | –
21 | CCOc1ccccc1C(=O)Nc1cccc2ccccc12 | inconclusive: 31.6 µM [inhibitor, single point] | –
22 | Cc1cccc(C)c1NC(=O)CN(C)C(=O)c1ccc(COc2ccccc2)cc1 | inconclusive: 12.6 µM [inhibitor, single point] | –

Row | Structure (SMILES) | Potency | activity change, negative = inhibition
23 | CN(c1ccc(C(=O)N2CCN(Cc3ccccc3)CC2)cc1)S(=O)(=O)c1ccccc1 | inconclusive: 31.6 µM [inhibitor, single point] | –
24 | Fc1ccc(CSc2ccc3nnc(-c4cccnc4)n3n2)cc1 | inconclusive: 31.6 µM [inhibitor, single point] | –
25 | Cc1cc(N2CCN(S(=O)(=O)c3ccc(C)c(C)c3)CC2)c2ccccc2n1 | inconclusive: 22.4 µM [inhibitor, single point] | –
26 | CN(C)C(=O)O/N=C(\N)COc1ccc(C(C)(C)C)cc1 | inconclusive: 22.4 µM [inhibitor, single point] | –
27 | Cc1cccc(NC(=S)Nc2cccc(C)n2)n1 | inconclusive: 10 µM [inhibitor, partial curve, poor fit] | –
28 | O=C(Nc1ncccn1)c1ccc([N+](=O)[O-])o1 | inconclusive: 11.2 µM [inhibitor, single point] | –
29 | O=C(c1cn(-c2ccccc2)nc1-c1cccs1)N1CCN(c2ccc(F)cc2)CC1 | inconclusive: 14.1 µM [inhibitor, single point] | –
30 | CC(C)N1C(=S)SC(C)(C)C1n1oc(=O)n(-c2ccc(Cl)c(Cl)c2)c1=O (centres undefined) | inconclusive: 31.6 µM [inhibitor, single point] | –
31 | COc1ccc(NC(=O)CSc2nnnn2C)cc1 | inactive | –
32 | CCCNC(=O)C(=O)NCC(c1ccc2c(c1)OCO2)N1CCN(c2ccc(F)cc2)CC1 (centres undefined) | inconclusive: 31.6 µM [inhibitor, single point] | –
33 | COC(=O)c1ccc(/C=C/C(=O)c2ccc(OC)c(OC)c2)cc1 | inconclusive: 31.6 µM [inhibitor, single point] | –
34 | COc1ccc(CN2C(=O)C(CC(C)C)Nc3ncnc(N4CCCCC4)c32)cc1 (centres undefined) | inactive | –
35 | CC(C)CNC(=O)COC(=O)CNC(=O)c1cc(Cl)cc([N+](=O)[O-])c1 | inactive | –
36 | COCc1ccc(C(=O)NC2CCCc3c2cnn3-c2ccc(C)c(C)c2)o1 (centres undefined) | inconclusive: 22.4 µM [inhibitor, single point] | –
37 | Cc1ccc2cccc(OCC(=O)Nc3ccc4c(c3)OCO4)c2n1 | inconclusive: 20 µM [inhibitor, single point] | –
38 | COc1ccc(C2CCCN2C(=S)Nc2cccc(Cl)c2)cc1OC (centres undefined) | inconclusive: 7.94 µM [inhibitor, partial curve] | –
39 | COc1ccccc1CCC(=O)OCC(=O)Nc1ccc(C)c(S(=O)(=O)N2CCCCC2)c1 | inactive | –
40 | CC(C)C(OC(=O)c1cccc(S(=O)(=O)NCC(F)(F)F)c1)C(=O)NC(N)=O (centres undefined) | inconclusive: 3.98 µM [inhibitor, full curve, poor fit] | –
41 | O=c1c2[nH]c3ccccc3c2nc2n1CCS2 | inactive | –
42 | c1ccc(C2=Nn3c(nnc3-c3cccs3)SC2)cc1 | – | inconclusive: -37.1% [inhibitor]
43 | O=Cc1ccc(N2CCCC2)o1 | inactive | –
44 | COc1ccc(CSC2=NCCN2)cc1Cl | inconclusive: 31.6 µM [inhibitor, single point] | –
